From PubChem BioAssay AID624417 (National Center for Advancing Translational Sciences (NCATS), 2012)
Among all 410,000 compounds or so, about 6,400 (1.6%) were called active. The shares of active, inactive and inconclusive entries below differ from those in the screen. Calls come from the whole dose curve; as a rule, active = well fitted inhibition curve with a large enough effect; inconclusive = small, poorly fitted or top-dose-only effect; inactive = no such curve, though single readings can be large or run the other way. No potency is given beside an inconclusive call; the fits are too rough.

What follows are compounds tested against Glucagon-like peptide 1 receptor (Homo sapiens) (UniProt P43220) (assay: qHTS of GLP-1 Receptor Inverse Agonists (Inhibition Mode)). Conditions: HEK293 GLP-1R CRE-luciferase, luminescence, 24 h, GLP-1R form is constitutively active; activity change, negative = inhibition: at 38.3 µM (top of the series) unless noted.
Chain of UniProt P43220 (P43220 whole entry, looked up): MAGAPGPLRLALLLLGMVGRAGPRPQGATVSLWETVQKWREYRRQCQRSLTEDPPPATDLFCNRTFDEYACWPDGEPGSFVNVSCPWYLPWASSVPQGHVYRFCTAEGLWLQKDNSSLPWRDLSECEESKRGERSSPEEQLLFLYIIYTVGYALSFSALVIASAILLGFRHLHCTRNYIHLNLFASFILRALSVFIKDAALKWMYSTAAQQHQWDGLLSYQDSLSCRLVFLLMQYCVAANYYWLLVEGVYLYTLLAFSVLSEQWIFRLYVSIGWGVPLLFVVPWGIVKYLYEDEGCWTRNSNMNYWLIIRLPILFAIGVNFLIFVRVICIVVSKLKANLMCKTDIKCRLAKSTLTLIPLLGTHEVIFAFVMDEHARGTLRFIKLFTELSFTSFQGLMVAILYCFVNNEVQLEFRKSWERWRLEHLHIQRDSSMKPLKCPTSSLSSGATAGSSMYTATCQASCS
Procedure, shortened: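 Luminescence readout: a drop in cAMP-driven luciferase signal flags inverse agonism at a constitutively active GLP-1R stably expressed in HEK293. Compound exposure lasted 24 hr at 37 deg C, 5% CO2.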
% is set by controls: 0 for no effect and ±100 for the full control effect; potency is the fitted concentration of half-maximal effect; tags give direction and shape of the fitted curve.
Note: nearly all actives have a fitted effect of over 55% in size.

With Cc1nc2ccc([N+](=O)[O-])cc2c(=O)n1Cc1cccc(Br)c1 as the compound, how does the Potency read?
Its Potency is inconclusive [inhibitor, single point].

For CC1CCCCC1NC(=O)CCC(=O)N1CCOc2ccc(Cl)cc21 (centres undefined), which Potency is on record?
The Potency was inconclusive [inhibitor, single point].

Which Potency does the source give for CCc1cccc(C)c1NC(=O)CN(C)Cc1ccc(Br)cc1 here?
Its Potency is inconclusive [inhibitor, single point].

How did the Potency turn out when COc1ccc(OC)c(CCNc2ncnc3onc(-c4ccc(F)cc4)c23)c1 was run?
Its Potency is inconclusive [inhibitor, single point].

For Cc1ccc(S(=O)(=O)N2CCCCC2)cc1NC(=O)c1cc(F)c(F)c(F)c1F, which Potency is on record?
The Potency was inconclusive [inhibitor, single point].

Which Potency does the source give for O=C(Nc1nc2ccc(F)cc2s1)C1=COCCO1 here?
Its Potency is inconclusive [inhibitor, partial curve, poor fit].

How did the Potency turn out when CC1CCCN(c2ccc(F)cc2N)C1 (centres undefined) was run?
The Potency was inconclusive [inhibitor, single point].

Which Potency does the source give for CS(=O)(=O)N(CC(=O)NCCSCc1ccccc1Cl)c1ccc(F)cc1 here?
Its Potency is inconclusive [inhibitor, partial curve, poor fit].

For Cc1ccc(C)c(SCC(=O)c2ccc[nH]2)c1, which Potency is on record?
Its Potency is inconclusive [inhibitor, single point].

With CC1COc2ccccc2N1C(=O)c1ccccc1Cl (centres undefined) as the compound, how does the Potency read?
The Potency was inconclusive [inhibitor, single point].

How did the Potency turn out when Cc1ccc(NS(=O)(=O)c2cc(NC(=O)c3cc(=O)[nH]c(=O)[nH]3)ccc2Cl)c(C)c1 was run?
The Potency was inconclusive [inhibitor, full curve, poor fit].

With COc1ccccc1NC(=O)Nc1nc(CC(=O)NCc2ccc(F)cc2)cs1 as the compound, how does the Potency read?
The Potency was inconclusive [inhibitor, partial curve, poor fit].

For Cc1ccc(F)c(NC(=O)CCOc2ccccc2C)c1, which Potency is on record?
Its Potency is inconclusive [inhibitor, single point].

With O=C1CC(NS(=O)(=O)c2ccc3ccccc3c2)CN1c1ccccc1 (centres undefined) as the compound, how does the Potency read?
Its Potency is inconclusive [inhibitor, single point].

Cc1ccc(C(=O)NC(NCc2ccco2)C(Cl)(Cl)Cl)cc1 (centres undefined) was tested. Which Potency did it give?
Its Potency is inconclusive [inhibitor, partial curve, poor fit].

Which Potency does the source give for COc1ccccc1Oc1nc(-c2cccnc2)nc2ccccc12 here?
Its Potency is inconclusive [inhibitor, partial curve, poor fit].

Which Potency does the source give for CCCCCCCCCCS(=O)(=O)N/N=C/c1ccc(O)cc1 here?
Its Potency is inconclusive [inhibitor, single point].

Which Potency does the source give for CCOc1ccccc1NC(=O)C1C(c2ccccc2)C1(Cl)Cl (centres undefined) here?
Its Potency is inconclusive [inhibitor, partial curve, poor fit].

Which Potency does the source give for O=C(CNC(=O)c1ccccc1)OC(C(=O)Nc1cc(C(F)(F)F)ccc1Cl)c1ccccc1 (centres undefined) here?
Its Potency is inconclusive [inhibitor, single point].

CCCCNc1c(-c2cccc(-c3cc(C(C)=O)cs3)c2)nc2ccc(C)cn12 was tested. Which Potency did it give?
The Potency was inconclusive [inhibitor, partial curve, poor fit].

Which Potency does the source give for COc1ccc(-c2nc3ccccc3nc2-c2ccc(OC)cc2)cc1 here?
Its Potency is inconclusive [inhibitor, single point].

Which Potency does the source give for CCOc1ccc2[nH]c(=O)c(CN(CCN3CCCC3)C(=S)Nc3ccccc3OC)cc2c1 here?
The Potency was inconclusive [inhibitor, single point].

With COc1ccc2cc(C(=O)NCc3ccco3)c(=O)oc2c1 as the compound, how does the “activity change, negative = inhibition” value read?
The value was inactive: 31.6%.

CCC1CCCCN1CCN1C(=O)C2C(C(=O)Nc3cccc(OC)c3)C3C=CC2(O3)C1C(=O)NC1CCCCC1 (centres undefined) was tested. Which Potency did it give?
Its Potency is inconclusive [inhibitor, partial curve, poor fit].

With Cc1cc(C(=O)CSc2nc3ccc(Cl)cc3[nH]2)c(C)n1CC1CCCO1 (centres undefined) as the compound, how does the Potency read?
The Potency was inconclusive [inhibitor, partial curve, poor fit].

O=C(c1ccc(-c2cccc(C(F)(F)F)c2)o1)N1CCCC(C(F)(F)F)C1 (centres undefined) was tested. Which Potency did it give?
The Potency was inconclusive [inhibitor, single point].

How did the “activity change, negative = inhibition” value turn out when CCc1nc(N2CCN(C(=O)c3ccco3)CC2)c2oc3ccccc3c2n1 was run?
The value was inactive: 0%.

COc1cc(OC)cc(C(=O)Nc2nc3ccccc3[nH]2)c1 was tested. Which Potency did it give?
Its Potency is inconclusive [inhibitor, single point].

For CS(=O)(=O)N(CC(=O)NCCc1ccccc1)c1cc(C(F)(F)F)ccc1Cl, which Potency is on record?
Its Potency is inconclusive [inhibitor, single point].

How did the Potency turn out when S=C(c1ccc(-c2ccccc2)o1)N1CCCCC1 was run?
The Potency was inconclusive [inhibitor, single point].

For N#Cc1ccc(Nc2nc(-c3ccccc3)c(C(=O)c3ccccc3)s2)cc1, which Potency is on record?
The Potency was inconclusive [inhibitor, single point].

With Cc1cccc(NC(=S)NCCc2ccccc2)c1C as the compound, how does the Potency read?
The Potency was inconclusive [inhibitor, single point].

With COc1cccc(OCc2cc(C(=O)N3CCC(C(O)C(C)C)CC3)no2)c1 (centres undefined) as the compound, how does the Potency read?
Its Potency is inconclusive [inhibitor, single point].

Which Potency does the source give for CCN1CCN(C(c2ccccc2)c2nnnn2Cc2ccccc2)CC1 (centres undefined) here?
Its Potency is inconclusive [inhibitor, single point].

Which Potency does the source give for CCc1ccc(NC(=O)c2onc(C)c2Cl)cc1 here?
Its Potency is inconclusive [inhibitor, single point].

For COc1cccc2c1CCc1c-2nc2ccccc2c1C(=O)O, which Potency is on record?
The Potency was inconclusive [inhibitor, partial curve, poor fit].

For COc1ccc(C2Sc3ccccc3NC3=C2C(=O)c2ccccc23)c(OC)c1OC (centres undefined), which Potency is on record?
Its Potency is inconclusive [inhibitor, full curve, poor fit].

Cc1cc(C)n(-c2ccc(C(=O)OCC(=O)c3ccc(Br)s3)cc2)n1 was tested. Which Potency did it give?
The Potency was inconclusive [inhibitor, single point].

For C=CCOc1ccc(CN(C)CC(=O)Nc2ccc3c(c2)CCC3)cc1, which Potency is on record?
Its Potency is inconclusive [inhibitor, single point].

CC(C)(C)c1ccc(C(=O)Nc2cccc(C(=O)N3CCOCC3)c2)cc1 was tested. Which Potency did it give?
Its Potency is inconclusive [inhibitor, partial curve, poor fit].

N#Cc1c(NCCN)nc(NCc2ccccc2)c2c1CCN(Cc1ccccc1)C2 was tested. Which Potency did it give?
The Potency was inconclusive [inhibitor, single point].

Which Potency does the source give for CC(C)Nc1nc(NCCOc2ccccc2Cl)c2sccc2n1 here?
The Potency was inconclusive [inhibitor, single point].

CC1(Cc2ccc(Cl)cc2)C(=O)Nc2c(Cl)cccc21 (centres undefined) was tested. Which Potency did it give?
Its Potency is inconclusive [inhibitor, partial curve, poor fit].

With CC1=C(C(=O)OCc2ccc3c(c2)OCO3)C(c2ccccc2OCc2ccccc2)NC(=O)N1 (centres undefined) as the compound, how does the “activity change, negative = inhibition” value read?
The value was inactive: 0%.

How did the Potency turn out when COc1ccc(C2/C=C\CN(C(=O)NC34CC5CC(CC(C5)C3)C4)CC(=O)N2Cc2ccc(F)cc2)cc1 (centres undefined) was run?
The Potency was inconclusive [inhibitor, partial curve, poor fit].

How did the “activity change, negative = inhibition” value turn out when COc1ccc(C(O)c2nc(-c3ccccc3)cs2)cc1 (centres undefined) was run?
Its value is inactive: -25.3%.

For CCc1cc2c(=O)n(-c3ccc(C)cc3)cnc2s1, which “activity change, negative = inhibition” value is on record?
Its value is inactive: -23.2%.

With Cc1ccc(S(=O)(=O)NCCc2cn3c(C)csc3n2)cc1 as the compound, how does the “activity change, negative = inhibition” value read?
Its value is inactive: 10.6%.

CCOC(=O)C1=C[C@@H](C(C)C)N(S(=O)(=O)c2ccc(C)cc2)[C@H]1c1ccccc1F was tested. Which Potency did it give?
The Potency was inconclusive [inhibitor, single point].

CCOC(=O)C1=C(C)N=C2SC(CC)C(=O)N2C1c1cccc(F)c1 (centres undefined) was tested. Which Potency did it give?
The Potency was inconclusive [inhibitor, partial curve, poor fit].

With CC1=C(C(=O)NC2CCCc3c2cnn3-c2cccc(C)c2C)OCCO1 (centres undefined) as the compound, how does the “activity change, negative = inhibition” value read?
The value was inactive: -2.47%.

How did the Potency turn out when Cc1cc(C)n(-c2nc3ccccc3nc2N2CCN(S(=O)(=O)c3ccc4ccccc4c3)CC2)n1 was run?
The Potency was inconclusive [inhibitor, partial curve, poor fit].

CC(O)(c1cccc(F)c1)c1nc(-c2cccc(F)c2)cs1 (centres undefined) was tested. Which Potency did it give?
Its Potency is inconclusive [inhibitor, single point].

How did the “activity change, negative = inhibition” value turn out when CNC(=S)NC1CC2CCC(C1)N2Cc1ccccc1 (centres undefined) was run?
Its value is inactive: 1.45%.

With CCn1cc(CCCC(=O)NCc2ccc(OC)cc2)c2ccccc21 as the compound, how does the Potency read?
Its Potency is inconclusive [inhibitor, partial curve].

For COC(=O)[C@]12CCCCC=C1N(Cc1ccco1)C(=O)[C@H](CC(=O)NCC1CCCCC1)C2, which “activity change, negative = inhibition” value is on record?
Its value is inactive: -13%.

For Cc1cccc2nc(COc3ccc4ccccc4c3Br)cn12, which Potency is on record?
Its Potency is inconclusive [inhibitor, partial curve, poor fit].

For O=S(=O)(Nc1ccc2oc3c(c2c1)CCCC3)c1cc(Cl)ccc1Cl, which Potency is on record?
Its Potency is active: 11.2 µM.

Which Potency does the source give for CN(CCC#N)C(=O)COC(=O)/C=C/c1ccc2c(c1)OCO2 here?
The Potency was inconclusive [inhibitor, full curve, poor fit].

With CCc1ccccc1NC(=O)Cn1c(-c2nonc2N)nc2ccccc21 as the compound, how does the “activity change, negative = inhibition” value read?
The value was inactive: 10.8%.

How did the Potency turn out when CCC1=NN(C(=O)c2ccc(Cl)cc2)C(O)(c2ccc(C)cc2)C1 (centres undefined) was run?
Its Potency is active: 2.82 µM.

Which Potency does the source give for O=C(NCCc1csc(-c2ccc(Cl)cc2)n1)c1cccs1 here?
The Potency was inconclusive [inhibitor, single point].

C[C@H](NC(=O)c1[nH]cnc1C(=O)Nc1ccc(Cl)cc1)c1ccccc1 was tested. Which Potency did it give?
Its Potency is inconclusive [inhibitor, partial curve, poor fit].

How did the Potency turn out when COc1ccc(S(=O)(=O)N2CCC(C(=O)N3CCN(c4ccccc4OC)CC3)CC2)cc1 was run?
The Potency was inconclusive [inhibitor, partial curve, poor fit].
